Results taken from US20250243260A1 (ALPINE IMMUNE SCIENCES, published 2025).

These binders were tested against T1, human PD-L1 (human, UniProt Q9NZQ7) (assay: flow cytometry, SCC152/PD-L1 cells).
T1 construct: whole, on cells; also called SCC152/PD-L1 cells
T1 sequence (Q9NZQ7 19-290): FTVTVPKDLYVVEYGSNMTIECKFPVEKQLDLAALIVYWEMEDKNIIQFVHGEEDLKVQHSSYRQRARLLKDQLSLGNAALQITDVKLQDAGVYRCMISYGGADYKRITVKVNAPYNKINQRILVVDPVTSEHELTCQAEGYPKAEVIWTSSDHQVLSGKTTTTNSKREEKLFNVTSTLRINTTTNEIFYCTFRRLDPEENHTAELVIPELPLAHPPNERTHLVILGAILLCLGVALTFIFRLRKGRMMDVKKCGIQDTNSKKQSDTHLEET

Row | Binder | Anti-Human Fc (MFI) at 0.8 nM [MFI] | Anti-Human Fc (MFI) at 4 nM [MFI] | Anti-Human Fc (MFI) at 20 nM [MFI] | Anti-Human Fc (MFI) at 100 nM [MFI] | fold change vs WT CD80 @20 nM [fold]
1 | CD80_222-Fc (Fc fusion, also called E35D, D46Q, L85E) VIHVTKEVKEVATLSCGHNVSVEELAQTRIYWQKDKKMVLTMMSGQMNIWPEYKNRTIFDITNNLSIVILALRPSDEGTYECVVEKYEKDAFKREHLAEVTLSVKADGSGGGGS[omitted - human IgG4 Fc with S228P (EU numbers)] | 647 | 653 | 683 | 753 | 1
2 | CD80_236-Fc (Fc fusion, also called V11Y, T28Y, M47L, A71G) VIHVTKEVKEYATLSCGHNVSVEELAQYRIYWQKEKKMVLTMMSGDLNIWPEYKNRTIFDITNNLSIVILGLRPSDEGTYECVVLKYEKDAFKREHLAEVTLSVKADGSGGGGS[omitted - human IgG4 Fc with S228P (EU numbers)] | 1680 | 4240 | 9000 | 10400 | 13.2
3 | CD80_223-Fc (Fc fusion, also called E10S, V68M, Y87P) VIHVTKEVKSVATLSCGHNVSVEELAQTRIYWQKEKKMVLTMMSGDMNIWPEYKNRTIFDITNNLSIMILALRPSDEGTYECVVLKPEKDAFKREHLAEVTLSVKADGSGGGGS[omitted - human IgG4 Fc with S228P (EU numbers)] | 669 | 667 | 675 | 796 | 1
4 | CD80_231-Fc (Fc fusion, also called V11W, T28Y, M47L) VIHVTKEVKEWATLSCGHNVSVEELAQYRIYWQKEKKMVLTMMSGDLNIWPEYKNRTIFDITNNLSIVILALRPSDEGTYECVVLKYEKDAFKREHLAEVTLSVKADGSGGGGS[omitted - human IgG4 Fc with S228P (EU numbers)] | 683 | 692 | 853 | 1040 | 1.3
5 | CD80_238-Fc (Fc fusion, also called V11Y, D46E, M47V, V68M) VIHVTKEVKEYATLSCGHNVSVEELAQTRIYWQKEKKMVLTMMSGEVNIWPEYKNRTIFDITNNLSIMILALRPSDEGTYECVVLKYEKDAFKREHLAEVTLSVKADGSGGGGS[omitted - human IgG4 Fc with S228P (EU numbers)] | 957 | 1660 | 3600 | 5400 | 5.3
6 | CD80_224-Fc (Fc fusion, also called K9N, V11W, M47L, V68T, R73T, Y87N) VIHVTKEVNEWATLSCGHNVSVEELAQTRIYWQKEKKMVLTMMSGDLNIWPEYKNRTIFDITNNLSITILALTPSDEGTYECVVLKNEKDAFKREHLAEVTLSVKADGSGGGGS[omitted - human IgG4 Fc with S228P (EU numbers)] | 764 | 856 | 955 | 1060 | 1.4
7 | CD80_239-Fc (Fc fusion, also called V11Y, T28Y, D46E, M47V) VIHVTKEVKEYATLSCGHNVSVEELAQYRIYWQKEKKMVLTMMSGEVNIWPEYKNRTIFDITNNLSIVILALRPSDEGTYECVVLKYEKDAFKREHLAEVTLSVKADGSGGGGS[omitted - human IgG4 Fc with S228P (EU numbers)] | 863 | 1220 | 2190 | 4380 | 3.2
8 | CD80_235-Fc (Fc fusion, also called V11Y, M47L, A71G) VIHVTKEVKEYATLSCGHNVSVEELAQTRIYWQKEKKMVLTMMSGDLNIWPEYKNRTIFDITNNLSIVILGLRPSDEGTYECVVLKYEKDAFKREHLAEVTLSVKADGSGGGGS[omitted - human IgG4 Fc with S228P (EU numbers)] | 995 | 1990 | 5240 | 8940 | 7.7
9 | CD80_228-Fc (Fc fusion, also called E7Q, V11Y, R29H, M47L, V68T) VIHVTKQVKEYATLSCGHNVSVEELAQTHIYWQKEKKMVLTMMSGDLNIWPEYKNRTIFDITNNLSITILALRPSDEGTYECVVLKYEKDAFKREHLAEVTLSVKADGSGGGGS[omitted - human IgG4 Fc with S228P (EU numbers)] | 998 | 1440 | 1920 | 2080 | 2.8
10 | CD80_233-Fc (Fc fusion, also called V11Y, T28Y, M47L, V68M) VIHVTKEVKEYATLSCGHNVSVEELAQYRIYWQKEKKMVLTMMSGDLNIWPEYKNRTIFDITNNLSIMILALRPSDEGTYECVVLKYEKDAFKREHLAEVTLSVKADGSGGGGS[omitted - human IgG4 Fc with S228P (EU numbers)] | 3650 | 6520 | 6910 | 7170 | 10.1
11 | CD80_225-Fc (Fc fusion, also called V11Y, M47L, V68T) VIHVTKEVKEYATLSCGHNVSVEELAQTRIYWQKEKKMVLTMMSGDLNIWPEYKNRTIFDITNNLSITILALRPSDEGTYECVVLKYEKDAFKREHLAEVTLSVKADGSGGGGS[omitted - human IgG4 Fc with S228P (EU numbers)] | 931 | 1280 | 1920 | 2300 | 2.8
12 | CD80_240-Fc (Fc fusion, also called V11Y, T28Y, D46E, M47V, V68M) VIHVTKEVKEYATLSCGHNVSVEELAQYRIYWQKEKKMVLTMMSGEVNIWPEYKNRTIFDITNNLSIMILALRPSDEGTYECVVLKYEKDAFKREHLAEVTLSVKADGSGGGGS[omitted - human IgG4 Fc with S228P (EU numbers)] | 4220 | 7570 | 8760 | 9700 | 12.8
13 | CD80_229-Fc (Fc fusion, also called V11Y, M47V, A71G, L85E) VIHVTKEVKEYATLSCGHNVSVEELAQTRIYWQKEKKMVLTMMSGDVNIWPEYKNRTIFDITNNLSIVILGLRPSDEGTYECVVEKYEKDAFKREHLAEVTLSVKADGSGGGGS[omitted - human IgG4 Fc with S228P (EU numbers)] | 771 | 1160 | 2220 | 4260 | 3.3
14 | CD80_232-Fc (Fc fusion, also called V11F, T28Y, M47L) VIHVTKEVKEFATLSCGHNVSVEELAQYRIYWQKEKKMVLTMMSGDLNIWPEYKNRTIFDITNNLSIVILALRPSDEGTYECVVLKYEKDAFKREHLAEVTLSVKADGSGGGGS[omitted - human IgG4 Fc with S228P (EU numbers)] | 816 | 1100 | 1570 | 1820 | 2.3
15 | CD80_230-Fc (Fc fusion, also called E10G, Q27F, D46N, A71G, D90G) VIHVTKEVKGVATLSCGHNVSVEELAFTRIYWQKEKKMVLTMMSGNMNIWPEYKNRTIFDITNNLSIVILGLRPSDEGTYECVVLKYEKGAFKREHLAEVTLSVKADGSGGGGS[omitted - human IgG4 Fc with S228P (EU numbers)] | 833 | 1110 | 1620 | 2110 | 2.4
16 | CD80_234-Fc (Fc fusion, also called V11Y, T28Y, M47L, V68L) VIHVTKEVKEYATLSCGHNVSVEELAQYRIYWQKEKKMVLTMMSGDLNIWPEYKNRTIFDITNNLSILILALRPSDEGTYECVVLKYEKDAFKREHLAEVTLSVKADGSGGGGS[omitted - human IgG4 Fc with S228P (EU numbers)] | 2460 | 6440 | 9550 | 9480 | 14
17 | CD80_241-Fc (Fc fusion, also called E10S, V11F, T28Y, M47L) VIHVTKEVKSFATLSCGHNVSVEELAQYRIYWQKEKKMVLTMMSGDLNIWPEYKNRTIFDITNNLSIVILALRPSDEGTYECVVLKYEKDAFKREHLAEVTLSVKADGSGGGGS[omitted - human IgG4 Fc with S228P (EU numbers)] | 1500 | 3210 | 5150 | 6480 | 7.5
